Data on 120 sequences can be found in the supplement of paper PMC10126150.

The data set relates to ATP. The experiment in a line: switch fluorescence ratio, 500 uM ATP over buffer (Cy3 cluster intensity, sum of 5 cycles each) (fold (ratio)); higher = stronger signal-on switching upon ATP binding; sequences stand for … in TCGTCGGCAGCGTCAGATGTGTATAAGAGACAGTTTTTTTTTTTTTTTTTTTTTTTTT…TC. Particulars: aptamer strand: ATP DNA aptamer (quencher-CACCTGGGGGAGTATTGCGGAGGAAGG + anchor), 100 nM annealed; ATP concentration: 500 uM; one replicate. The essentials:
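The fluorescence ratio divides summed target-cycle Cy3 intensity by summed buffer-cycle Cy3 intensity for each cluster and is averaged per switch-domain sequence. Cy3-labelled switching-strand clusters on a modified Illumina MiSeq flow-cell were annealed to 100 nM quencher-labelled ATP aptamer, then imaged in selection buffer and again after 15 min with 500 uM ATP at 22 °C. Five such cycles were run, with NaOH stripping and re-annealing between them, and clusters outside 100-1000 RFU were excluded.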

Sequences with one replicate were seen in a single cluster, so their values are uncertain.
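Further: ATP exposure 15 min at 22 °C before imaging.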

For the sequence GGGATTTCTT, the switch fluorescence ratio turned out to be 0.962.
The result for GATATTGATG reads 1.
For ACCGTTCGAA the value was 1.03.
Turning to TGTGTGCCCT, the switch fluorescence ratio came to 1.23.
For CTGAGTGCTG the value was 0.967; for CGGGTTAAGC, 1.03.
The result for TCGATGGGCT reads 0.994; that for AGAGGGCTGC, 1.02; that for GATAGGGTCT, 1.11.
The result for ACACAGAA reads 1.03; that for ATATCGGGTT, 0.961.
Regarding AAATTGCTGG, the switch fluorescence ratio was found to be 0.976.
The result for GGGGTTAGGC reads 1.08; that for CGTGGTATCC, 0.989.
The result for AATTGCGTCG reads 0.947; that for AGCCGGTTAG, 1.01.
The result for GGTCGCTATA reads 0.992.
In the case of CATTGACTC, the switch fluorescence ratio was determined as 1.07.
The result for AGATGTGGT reads 1.01; that for TGTCAACCTA, 1.06.
As for GAAGGCCTTC, the switch fluorescence ratio worked out at 0.999.
The result for TGAACTGC reads 1.04.
For TACTGAGTAA the value was 1.01.
The result for TGCGCGTGGG reads 1.01.
In the case of AAATTGCTCA, the switch fluorescence ratio stood at 0.958.
The result for GGCGACGTTG reads 0.987; that for TGCATAGCAC, 1.02.
For TAGGTCAGTG the value was 1.05; for TTTGTGAAT, 0.977; for CGACTCCAAA, 1.32.
For GGGAGCGGCA, the switch fluorescence ratio came to 1.01.
For TTGAGGTGTC the value was 1.43.
For TTAATTAGGA the value was 1.03; for TTCATCTGAC, 1.11; for TATCGCCTGT, 1.06.
Turning to GATTTTTAAT, the switch fluorescence ratio came out at 0.999.
For AAGTGTGAGG the value was 1; for CTCGGTAGT, 0.994.
For GTTAAGACCT the value was 1.3; for TATAGTTATG, 1.01.
As to TTGGTGGAGT, the switch fluorescence ratio was 1.
For CGTAACATGC the value was 1.4; for CCAGGAGCCT, 1.08.
For AGATAGAC the value was 1.09.
The result for GCGTAGTGTG reads 0.981; that for ATGCGCCGGC, 0.948; that for GAGCGGGAAT, 1.04.
In the case of AAATGAGGA, the switch fluorescence ratio came out at 0.99.
The result for TCTTATTATT reads 0.982; that for CTGAGCACA, 2.21.
The result for TGCATCAATT reads 1; that for TGCATGAACG, 1.02.
For TATAGTTAT the value was 0.997; for GATGTGTCGA, 0.964; for TATAAATTTC, 1.02.
On to GGGCGATTGG, for which the switch fluorescence ratio is 0.974.
With TAGAGGTTAC, the switch fluorescence ratio was determined as 0.974.
For GCGTTGATAG the value was 1.01.
The result for AGTTGGCGCA reads 1.01.
The result for TATTTGCGC reads 1.04; that for AGGGTCCCTA, 1.3; that for GCTGAGGACC, 1.
As to CACGCTAAAC, the switch fluorescence ratio came to 3.05.
The result for ACGCTTAGAT reads 1.04; that for AAAATCGGAT, 0.995; that for CCACTTCCTA, 1.15.
The result for TGATAGCGTT reads 1.03; that for AGCGGGCGGA, 1.01.
As to GGACATGGCC, the switch fluorescence ratio was determined as 1.01.
For GGTACATGTC the value was 1.08; for CATGCGTCTG, 0.956; for GCTTTACCGA, 1.
The result for TGATTATATT reads 1.01; that for CAATTTTAAA, 0.978.
For GCCAGCGTTC the value was 1.06; for TTGGACGTGG, 0.999; for GAACGAGCAG, 1.06.
As for GTGTTGGTCG, the switch fluorescence ratio worked out at 1.01.
The result for TCTCTGGCTA reads 1.51; that for TGTTATAAG, 0.985.
Take TGATTCATAA: the switch fluorescence ratio came to 1.01.
The result for CTTATTTTGG reads 0.993; that for GTTCTGATGG, 1.05.
The result for CGATTGGGTG reads 1.04; that for TGTGCGTCCT, 1.08; that for CCTTTGGACG, 1.05.
The result for ATATCGCCCT reads 1.01.
CAGTGAGTGT: the switch fluorescence ratio worked out at 0.965.
The result for AGTGTTACCT reads 1.1; that for ATAGTTACAA, 0.963.
In the case of TGACGACGAT, the switch fluorescence ratio came out at 1.48.
For CTAGGGGTGT the value was 1.09.
For CCAACGGCAG, the switch fluorescence ratio worked out at 1.15.
For GCCACGGCCA the value was 1.01; for GGACGCTTGT, 0.969; for TTGACAAAAC, 1.
The result for TTGTTTCCGT reads 0.961; that for GAGAAAGGGC, 0.976.
CTTTTGAAAA: the switch fluorescence ratio came to 0.969.
Consider ACATTACACT, for which the switch fluorescence ratio came to 1.26.
For GTTGTCCGTT the value was 0.98; for GGTGGCTTGT, 0.986; for AGTTATTTTG, 1.
Regarding GCGCGGCAGA, the switch fluorescence ratio was 0.989.
Regarding CCCATTGCAG, the switch fluorescence ratio worked out at 1.08.
The result for CATGGCTTCC reads 2.16; that for CCGGTCCAGG, 2.21; that for TGGCATGAGA, 1.03.
The result for AAAGGTAGGA reads 1.04; that for TCGAATTGAG, 0.991.
The result for GTGCCCCGGG reads 1.51.
For the sequence TTAGATCCCG, the switch fluorescence ratio was determined as 1.02.
In the case of ACATCGAT, the switch fluorescence ratio stood at 0.995.
Turning to CTTATCTGAA, the switch fluorescence ratio came out at 0.983.
Consider CAACTCCTAA, for which the switch fluorescence ratio came out at 1.06.
The result for ATTTCAAGCC reads 1.04; that for AGTGCCGCTT, 1.03.
With TGGTGCGCTT, the switch fluorescence ratio is 1.02.
The result for CGCGGTGAC reads 1.53; that for GGAGTCGGTA, 0.912.
